# Experimental data published in PubChem BioAssay AID588342 (National Center for Advancing Translational Sciences (NCATS), 2011).
# About 25,000 (6.9%) of roughly 360,000 compounds were called active. Inconclusive means that the source gave no clear call. Such entries were picked first, then a sample of the others. The call rests on the fitted dose curve; in most records, active means well fitted inhibition curve with a large enough effect; inconclusive means small, poorly fitted or top-dose-only effect; inactive means flat fitted curve, though single readings scatter. Where the call is inconclusive, the potency comes from a doubtful curve fit.
# Target: Luciferin 4-monooxygenase (Photinus pyralis) (UniProt P08659)
# UniProt P08659, sequence (P08659 whole entry, looked up): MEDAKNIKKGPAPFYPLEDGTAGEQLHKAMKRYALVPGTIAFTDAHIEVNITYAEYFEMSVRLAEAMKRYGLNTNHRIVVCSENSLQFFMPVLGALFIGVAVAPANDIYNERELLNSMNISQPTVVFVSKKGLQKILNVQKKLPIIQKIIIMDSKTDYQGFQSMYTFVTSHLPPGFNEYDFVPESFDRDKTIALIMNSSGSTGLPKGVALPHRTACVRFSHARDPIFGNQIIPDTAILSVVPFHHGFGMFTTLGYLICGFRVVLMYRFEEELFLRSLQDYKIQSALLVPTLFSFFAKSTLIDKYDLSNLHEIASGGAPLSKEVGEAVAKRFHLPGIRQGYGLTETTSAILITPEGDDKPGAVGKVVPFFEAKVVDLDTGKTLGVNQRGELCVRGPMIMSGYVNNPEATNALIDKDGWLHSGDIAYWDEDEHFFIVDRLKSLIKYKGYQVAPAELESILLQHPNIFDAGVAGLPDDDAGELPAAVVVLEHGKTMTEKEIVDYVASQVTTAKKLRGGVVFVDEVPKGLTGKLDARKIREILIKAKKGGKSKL
# Test: qHTS profiling assay for firefly luciferase inhibitor/activator using purifed enzyme and Km concentrations of substrates (counterscreen for miR-21 project); further: nearly all actives have a fitted effect of over 55% in size
# Conditions: purified FLuc, luminescence inhibition; series mostly up to 57.5 µM
# How it was run: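 Biochemical qHTS of compounds, final roughly 60 µM downward over six points, against 10 nM purified firefly luciferase using Km concentrations of substrates (10 uM D-luciferin, 10 uM ATP) in Tris acetate pH 7.5 buffer; luminescence output.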
# Potency means the concentration at half of the fitted maximal effect; tags describe the fitted curve by direction and shape.
row,Structure (SMILES),Potency
1,O=C(NNC(=O)c1ccccc1F)c1cccc(Cl)c1,"inconclusive: 26.9 µM [inhibitor, single point]"
2,O=C(Cc1ccccc1[N+](=O)[O-])NCc1ccc2c(c1)OCO2,"inconclusive: 21.3 µM [inhibitor, partial curve]"
3,O=C(O)c1ccccc1C(=O)NCCCn1ccnc1,inactive
4,COc1nc(-c2ccccc2)nnc1-c1ccccc1,active: 5.36 µM
5,Cc1ccccc1CNC(=O)c1oc2c(c1C)-c1[nH]ncc1CC2,"inconclusive: 23.9 µM [inhibitor, partial curve, poor fit]"
6,NS(=O)(=O)c1ccc(NC(=O)COC(=O)CSc2n[nH]c(-c3ccccc3)n2)cc1,"inconclusive: 26.9 µM [inhibitor, partial curve, poor fit]"
7,Cc1ccc(S(=O)(=O)N(C)C)cc1NC(=O)C(C)OC(=O)/C=C/c1cccs1 (centres undefined),"inconclusive: 37.9 µM [inhibitor, single point]"
8,CC(C)C1C(=O)Nc2ccc(S(=O)(=O)NCCc3ccc(Cl)cc3)cc21 (centres undefined),inactive
9,Cc1ccc(C(NC(=O)C(C)C)c2cc([N+](=O)[O-])c3cccnc3c2O)cc1 (centres undefined),"inconclusive: 26.9 µM [inhibitor, single point]"
10,O=C(CSc1ccc(-c2cccs2)nn1)N1CCCCC1,"inconclusive: 37.9 µM [inhibitor, single point]"
11,COc1ccc(-c2nc(-c3ccc(Br)cc3)no2)c(OC)c1,active: 1.2 µM
12,Cc1ccccc1C(=O)OCc1cc(=O)n2nc(C(C)C)sc2n1,active: 16.9 µM
13,Nc1ccc(N=Nc2ccccc2)c(N)n1,active: 16.9 µM
14,Cc1ccc([N+](=O)[O-])cc1S(=O)(=O)Nc1cccc(-c2ccc(N3CCCC3)nn2)c1,active: 19 µM
15,COc1ccc(-n2cc(C#N)c(=O)n(Cc3ccc(F)cc3)c2=O)cc1,inactive
16,CCNc1nc(Cl)nc(NC2CCCCC2)n1,"inconclusive: 37.9 µM [inhibitor, partial curve, poor fit]"
17,CCN1CCN(C(c2ccc(C)cc2)c2c(O)cc(C)n(Cc3ccco3)c2=O)CC1 (centres undefined),"inconclusive: 37.9 µM [inhibitor, partial curve, poor fit]"
18,Nc1c(/C=C2\C=Nc3ccccc32)c(=O)nc2sc(CC(=O)N3CCOCC3)nn12,"inconclusive: 21.3 µM [inhibitor, partial curve, poor fit]"
19,CCCCNC(=S)NNC(=O)c1cccnc1,inactive
20,c1ccc2c(CCNc3ncnc4nc[nH]c34)cccc2c1,"inconclusive: 13.5 µM [inhibitor, partial curve, poor fit]"
21,C/C(N)=C(/C#N)C(=O)CSc1nnc(NC(C)C)s1,"inconclusive: 26.9 µM [inhibitor, single point]"
22,O=C1CCN(Cc2ccc([N+](=O)[O-])cc2)CCN1[C@H](CO)c1ccccc1,inactive
23,O=C(N/N=C/c1ccc(O)cc1)c1cc(-c2ccc3c(c2)OCO3)n[nH]1,"inconclusive: 3.01 µM [inhibitor, full curve]"
24,COc1ccc(NC(=O)c2c(C)oc3ccc(O)c(CN4CCN(Cc5ccccc5)CC4)c23)cc1Cl,inactive
25,Clc1ccc(-c2onc3c2CCCC3)cc1,"inconclusive: 15.1 µM [inhibitor, partial curve]"

row,Structure (SMILES),Potency
1,O=C(/C=C/c1ccccc1)NCc1ccco1,"inconclusive: 37.9 µM [inhibitor, single point]"
2,COc1ccc(C(=O)/C=C2/Sc3cc4c(cc3N2C)OCO4)cc1,"inconclusive: 1.2 µM [inhibitor, full curve]"
3,Cc1ccccc1-c1nn2c(-c3ccccc3)nnc2s1,"inconclusive: 26.9 µM [inhibitor, partial curve, poor fit]"
4,C=C(C)C1CC=C(C)/C(=N/Nc2ccccc2[N+](=O)[O-])C1 (centres undefined),"inconclusive: 21.3 µM [inhibitor, partial curve, poor fit]"
5,COc1ccc(-c2cc3nc(C)c(CCC(=O)N4CCN(c5ccc(F)cc5)CC4)c(C)n3n2)c(OC)c1,inactive
6,COc1ccc(NS(=O)(=O)c2cccc(C(=O)NCCc3ccc(S(N)(=O)=O)cc3)c2)cc1,inactive
7,O=C(O)c1cccc(COc2ccc3c(c2)CCC3)c1,active: 0.0675 µM
8,COc1ccc(/C=C2/C(=O)N(c3c(F)c(F)c(F)c(F)c3F)N=C2C)cc1,"inconclusive: 21.3 µM [inhibitor, partial curve, poor fit]"
9,COc1ccc(NC(=O)CSCC(=O)OCc2cccc(OC)c2OC)cc1,inactive
10,O=C(NCc1ccccc1)c1ccc2c(=O)[nH]c3c(C(=O)NCC4CCCO4)sc(=S)n3c2c1 (centres undefined),active: 26.9 µM
11,O=C(Nc1nc(-c2ccc(Cl)cc2Cl)cs1)c1ccc(OCC2CCCO2)cc1 (centres undefined),"inconclusive: 33.8 µM [inhibitor, single point]"
12,CC1=NN(c2ccccc2C(=O)O)C(=O)C1N=Nc1ccccc1 (centres undefined),active: 15.1 µM
13,Nn1c(SCC(=O)Nc2ccc(Oc3ccccc3)cc2)nnc1C1CC1,"inconclusive: 33.8 µM [inhibitor, partial curve, poor fit]"
14,O=C(Nc1ccccc1)c1ccc(Br)c(S(=O)(=O)Nc2cccnc2)c1,"inconclusive: 26.9 µM [inhibitor, single point]"
15,O=C(c1cnn2c(C(F)(F)F)cc(-c3cccs3)nc12)N1CCCC1,inactive
16,CCCCn1c(=O)[nH]c(=O)c2c1nc(-c1ccccc1OC(F)F)n2C,inactive
17,O=C(N/N=C/c1ccoc1)c1ccccc1F,"inconclusive: 16.9 µM [inhibitor, partial curve]"
18,O=C(OCC(=O)N1CCN(C(=O)c2ccco2)CC1)c1ccccc1OCc1ccc(Cl)cc1,"inconclusive: 21.3 µM [inhibitor, single point]"
19,CCOc1ccc(NS(=O)(=O)c2cc(NC(=O)c3cccc(C)c3)ccc2Cl)cc1,"inconclusive: 19 µM [inhibitor, partial curve, poor fit]"
20,CCOC(=O)c1cnn(-c2ncnc3c2cnn3C)c1N,"inconclusive: 13.5 µM [inhibitor, partial curve]"
21,Cc1ccc(Sc2ncccc2COC(=O)NC(C)C)cc1,"inconclusive: 26.9 µM [inhibitor, single point]"
22,Cc1c(NC(=O)C(C)OC(=O)c2c3c(nc4ccccc24)CCC3)c(=O)n(-c2ccccc2)n1C (centres undefined),inactive
23,COc1ccc(S(=O)(=O)N2CCCCC2)cc1NC(=O)c1ccc(N2CCCC2=O)cc1,inactive
24,CC(=O)c1ccc(NC(=O)COc2ccccc2C(=O)Nc2ccccc2)cc1,"inconclusive: 23.9 µM [inhibitor, partial curve]"
25,COc1ccc(OCc2cc(C(=O)O)c(C)o2)cc1,active: 2.13 µM

row,Structure (SMILES),Potency
1,Cc1ccc(-c2nnc(Nc3cccc(O)c3)c3ccccc23)cc1S(=O)(=O)NCC1CCCO1 (centres undefined),"inconclusive: 15.1 µM [inhibitor, partial curve, poor fit]"
2,O=C(CCS(=O)(=O)c1ccc(Br)cc1)Nc1ccc2c(c1)OCO2,"inconclusive: 26.9 µM [inhibitor, single point]"
3,COCCCNc1nc2ccccc2[nH]c1=O,inactive
4,CCSC1=C(C#N)C2(CCCCC2)C(C#N)=C(N)N1,active: 6.01 µM
5,CC(C)c1ccc(/C=N/n2cnnc2)cc1,"inconclusive: 42.6 µM [inhibitor, partial curve, poor fit]"
6,O=C(Nc1ccccc1)c1ccc(OC(=O)c2cc3ccccc3o2)cc1,inactive
7,CCN(CC(=O)NCCCN1CCOCC1)S(=O)(=O)c1ccc(F)cc1,inactive
8,Cc1ccc(CN2CCN(Cc3cc4ccccc4o3)CC2CCO)cc1 (centres undefined),inactive
9,Cc1c(Cl)cccc1NC(=O)C1CCCN(c2ncnc3onc(C)c23)C1 (centres undefined),inactive
10,Cc1cccc(CN2C(=O)N/C(=C/c3cc(C)n(-c4cc(C)ccn4)c3C)C2=O)c1,"inconclusive: 30.1 µM [inhibitor, partial curve, poor fit]"
11,COc1ccc(/C=C(/NC(=O)c2ccccc2)c2nc3ccc(Cl)cc3[nH]2)cc1OC,"inconclusive: 12 µM [inhibitor, partial curve]"
12,CC(CN1CCCCC1)OC(=O)c1ccco1 (centres undefined),inactive
13,Cc1ccc(C(=O)COC(=O)CCC(=O)NC2CCCCC2)cc1C,active: 9.53 µM
14,COc1ccc(-c2nc(CS(=O)CC(=O)NCc3ccc4c(c3)OCO4)c(C)o2)cc1OC (centres undefined),inactive
15,O=C(c1ccc(COc2ccccc2Br)o1)N1CCN(c2ccccn2)CC1,"inconclusive: 37.9 µM [inhibitor, partial curve, poor fit]"
16,COc1cccc(C(=O)Oc2cc(-c3ccccc3)no2)c1,"inconclusive: 23.9 µM [inhibitor, partial curve]"
17,Oc1ccc(-c2nccc(-c3ccc(Br)cc3)n2)cc1,"inconclusive: 23.9 µM [inhibitor, single point]"
18,CC(C)CNC(=S)NC(=O)c1ccc(Cl)cc1,active: 12 µM
19,Clc1ccc(OCCCCSc2ncccn2)cc1,"inconclusive: 15.1 µM [inhibitor, partial curve]"
20,CC(C)OCCCNC(=O)CCCN1C(=O)CCn2nc(-c3cccn3C)cc21,inactive
21,O=C(N/N=C/c1ccsc1)c1cc(-c2cccs2)nc2ccccc12,active: 9.53 µM
22,O=C(Nc1ccc2c(c1)OCCO2)c1cccs1,active: 5.36 µM
23,Cc1ccccc1NC(=O)c1cnc2ccccn2c1=O,active: 0.757 µM
24,CC1CCCN(C(=O)COC(=O)c2ccc3[nH]c4c(c3c2)CCCC4)C1 (centres undefined),"inconclusive: 10.7 µM [inhibitor, partial curve]"
